Experimental findings from paper PMC12136788 are described below.

This is one part of the list.

The labels stand for the following.
T1: UNK ZnF1-6 (called full-length) (human, UniProt Q9C0B0 30-357)
T1 sequence: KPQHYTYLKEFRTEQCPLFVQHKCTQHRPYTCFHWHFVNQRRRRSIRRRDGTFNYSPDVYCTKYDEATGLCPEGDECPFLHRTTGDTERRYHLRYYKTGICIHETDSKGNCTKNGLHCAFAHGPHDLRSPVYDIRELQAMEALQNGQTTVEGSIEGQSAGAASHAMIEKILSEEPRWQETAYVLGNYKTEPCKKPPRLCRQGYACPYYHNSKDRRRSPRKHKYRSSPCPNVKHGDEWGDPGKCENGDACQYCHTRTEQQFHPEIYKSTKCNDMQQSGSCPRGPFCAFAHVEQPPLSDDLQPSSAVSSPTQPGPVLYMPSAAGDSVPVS

B1: chr21:43695798:43695899:+|3pUTR|ENSG00000160208|msi1|FALSE|unique (ssRNA)
RNA: GGGAGUUCUACAGUCCGACGAUCACAAUAUUUUGUAAAAUGAUGCUUCCCCCUUCUCCAUGGUCUAGUCAAUUUUGUACAAUUAGGUAUCUGACUUUACAAGUUUGUUAUCCUUUCUAAUUUUUACUGAACUGAAAGCACAAACAACAGAGGAUUGAGCAUCA
B2: ENSG00000137168:stop:overlap|stop_codon|ENSG00000137168|stop_codon|NA|stop_codon (ssRNA)
RNA: GGGAGUUCUACAGUCCGACGAUCCAAACUCCCAGGACCGCCCUGUGGACGACGUGAAGAUCAUUAAGGCAUACCCUUCUGGGUAGACUUGCUACCCUCUUGAGCAGCUCUUCUGAGAUGGCCCCAGUGAACCAGCUUCUAGAUCAACAGAGGAUUGAGCAUCA
B3: ENSG00000119285:stop:overlap|stop_codon|ENSG00000119285|stop_codon|NA|stop_codon (ssRNA)
RNA: GGGAGUUCUACAGUCCGACGAUCUGUCGCCUUACUUCCUGCUUAAGCCAGCACAGAAGUGUCUGGAGUGGUUGAUUCACAGGUAGCUAAUAGAAUUACAGAAAUAACUAUGGGUUAAUCACUUUGGUCUUGUAAAAAAUUAAGCAACAGAGGAUUGAGCAUCA
B4: chr1:119913532:119913650:-|3pUTR|ENSG00000134250|msi1|FALSE|bound_elsewhere (ssRNA)
RNA: GGGAGUUCUACAGUCCGACGAUCUCAUGCUCUUGGCAAUUUCUUUGACUUUCUUUUAAGGGCAGAAGCAUUUUAGUUAAUUGUAGAUAAAGAAUAGUUUUCUUCCUCUUCUCCUUGGGCCAGUUAAUAAUUGGUCCAUGGCUACAACAGAGGAUUGAGCAUCA
B5: ENSG00000107863:be:win_4651|CDS|ENSG00000107863|bound_else_gene|NA|bound_elsewhere_windowed (ssRNA)
RNA: GGGAGUUCUACAGUCCGACGAUCAGCACGUCUUCCCAGGCCUCCCUGGCAAGGUUUUCCAUGAAGAAAUCAACCAGUCCAGAAACGAAACAUAGCGAGUUUUUGGCCAACGUCAGCACCAUCACCUCAGAUUAUUCCACCACACAACAGAGGAUUGAGCAUCA
B6: chr10:110135209:110135310:+|3pUTR|ENSG00000148700|msi1|FALSE|bound_elsewhere (ssRNA)
RNA: GGGAGUUCUACAGUCCGACGAUCCUCUCUAUUGGAAGAUUUUUUUAAUGUUCUACAUCAUUUAUGUUGUAUUACAAUGUAUGUAGAAAUAGUAACCUGUGAACUAUGCUUUUCCAUAACUUUUUAAAAAUAUAUAUAUCUAAACAACAGAGGAUUGAGCAUCA
B7: ENSG00000121579:stop:overlap|stop_codon|ENSG00000121579|stop_codon|NA|stop_codon (ssRNA)
RNA: GGGAGUUCUACAGUCCGACGAUCUCAGCUACAAUGACAAGUUCUACAAGGAUGUGCUGGAGCCUAUUUCAAUGAUAUUGCUGUAGGUGCAGUAUGCUGUAGGGUGGAUCAUUCACAGAAUCAGAAGAGACUUUACAUCAUGACCAACAGAGGAUUGAGCAUCA
B8: chr2:1632960:1633155:-|3pUTR|ENSG00000130508|msi1|total|mutant (ssRNA)
RNA: GGGAGUUCUACAGUCCGACGAUCGUCCAUUUUUCCGGUAUCCGAUAUGGCAGAAAAACCAUUUCCACUAUGCAAAGUUCUUUCCGACGUCAGUGAAAAUCAACUCUCAUACCUCAUGGUCUCUCUUUAAUUGACCAAAACCUUCAACAGAGGAUUGAGCAUCA
B9: chr13:30205178:30205279:-|3pUTR|ENSG00000102781|msi1|total|mutant (ssRNA)
RNA: GGGAGUUCUACAGUCCGACGAUCUUGGCAGUUUCUCUAACGACUCUGUACCGCUUCUGGCUUCUACUACUGAAACAAGAGUUCCGAUCACUGAUGGAGAGGCACCGUAAUCUGUUUGUGCUUUGGAAAAAUAUAUAAAAGUUUCAACAGAGGAUUGAGCAUCA
B10: chr2:223975255:223975490:-|3pUTR|ENSG00000135919|msi1|FALSE|bound_elsewhere (ssRNA)
RNA: GGGAGUUCUACAGUCCGACGAUCUUUAAAUUCUUUUCCCCCAUCCCCCUCCAAAGUCUUGAUAGCAAGCGUUAUUUUGGUGGUAGAAACGGUGAAAUCUCUAGCCUCUUUGUGUUUUUGUUGUUGUUGUUGUUGUUGUUUUAUCAACAGAGGAUUGAGCAUCA
B11: chr12:85264020:85264122:+|3pUTR|ENSG00000133640|unk|FALSE|unique (ssRNA)
RNA: GGGAGUUCUACAGUCCGACGAUCCAUAGUAUUUCAGUUACUUUCCACAGCUGUGUUGCUCAAUAAUAGCAUCCAGUGAACUUUAGUAUUUUUUUGUUUUUCCUGUAUUUUAUUAAAAUAUUUCAUCUAGAGAUAACUGAAGUGCAACAGAGGAUUGAGCAUCA
B12: ENSG00000070961:be:win_1651|CDS|ENSG00000070961|bound_else_gene|NA|bound_elsewhere_windowed (ssRNA)
RNA: GGGAGUUCUACAGUCCGACGAUCGGACUUCUUUUGGAUUUAAAACGGGAUUAUCAGGAUGUUAGAAAUGAAAUACCAGAAGAAGCACUGUACAAAGUCUACACCUUCAAUUCUGUUAGGAAGUCCAUGAGUACUGUCCUGAAACAACAGAGGAUUGAGCAUCA
B13: chr2:227144361:227144754:-|three_prime_utr|ENSG00000081052|control|control|control (ssRNA)
RNA: GGGAGUUCUACAGUCCGACGAUCGGCAAUGAUGGCAGCCAGAGAGAGGAAAGCAUGGAUCUUGUCACUGAUGACAAGUCGGCUAGUAGGAGCAGCCUCAUAGAAAUAAAAAGUAGCUUUCUGGAAUUAAUUCCUUUACUCUUUCAACAGAGGAUUGAGCAUCA
B14: chrX:129805617:129805718:-|3pUTR|ENSG00000188706|msi1|FALSE|unique (ssRNA)
RNA: GGGAGUUCUACAGUCCGACGAUCUCUUUUCCCAUUAGAUAUAUGUAAGUAGUUGUAGUAGAGAUAAUAAUUGACAUUUCUCGUAGACUACCCAGAAACUUUUUUAAUACCUGUGCCAUUCUCAAUAAGAAUUUAUGAGAUGCCCAACAGAGGAUUGAGCAUCA
B15: chr7:157269180:157269282:+|3pUTR|ENSG00000009335|unk|total|mutant (ssRNA)
RNA: GGGAGUUCUACAGUCCGACGAUCAUUUCCGGUUGUUUUAUGUUGAAUGUUCUAUAUCUUAUCCGUUAAUUUGUAUAUUUUAUCCGUAUUUUGGAAACCGCAUAUCUGAGACUGAAGAGAAAUUGACAAUUCACUUAUUUGUGGCAACAGAGGAUUGAGCAUCA
B16: chr18:54155150:54155251:-|3pUTR|ENSG00000134046|unk|FALSE|unique (ssRNA)
RNA: GGGAGUUCUACAGUCCGACGAUCUUUCCACUGGCUUUUGCCUGUAAGAAAAAAAAUGUACCCGAGCACAUAGAGCUUUUUAAUAGCACUAACCAAUGCCUUUUUAGAUGUAUUUUUGAUGUAUAUAUCUAUUAUUCAAAAAAUCAACAGAGGAUUGAGCAUCA
B17: chr12:57626096:57626197:-|3pUTR|ENSG00000135454|msi1|FALSE|unique (ssRNA)
RNA: GGGAGUUCUACAGUCCGACGAUCGUGUCUCUGCAAUGCUGUGGGCACAAAAGAAGGGGCACCAGAGUCCCUGUGCAAACACCUAGACUCACUUCAUGGAUUCCAAAGCUCUCAGCUUCAUUUUAUUAGUUACGUUAGGUAAGGCAACAGAGGAUUGAGCAUCA
B18: chr15:44524374:44524475:+|3pUTR|ENSG00000137770|msi1|FALSE|unique (ssRNA)
RNA: GGGAGUUCUACAGUCCGACGAUCUAUCUAUCUCAGAUCGAAUACAUAUAGUAGGUAGGCUAAAACAGAAGAGUCUUUAGAACUAGUGCAACUCCAGUGAAAUUUUUUAUGUACAGGACAUCUGCAGUUUAUAAAGAAUUCUGUCAACAGAGGAUUGAGCAUCA
B19: chr12:24811411:24811512:-|3pUTR|ENSG00000060982|msi1|total|mutant (ssRNA)
RNA: GGGAGUUCUACAGUCCGACGAUCGUGAAGAACUCUAUAUUUGUAUGUUGAGAGGGCAUGGAAUAAUUGUAUUUUGCUGGCAACCGACACAUUCUUUAUUAUUUGCAGAUUCCUCAUCAAAUCUGUAAUUAUGCACAGUUUCUGCAACAGAGGAUUGAGCAUCA
B20: chr6:11183581:11183682:-|3pUTR|ENSG00000111859|msi1|total|mutant (ssRNA)
RNA: GGGAGUUCUACAGUCCGACGAUCAAAACAAGAAUGCAUGAUCUCAGAGUGAUUAAAAAAAAAUCAGUGGAAAUAAAUGAUCACCGAAGGUGCUUUUCAAAACAACUGCUAUUAUAAUUCUCAAAGUCCUACUCUGCCAAAAGACAACAGAGGAUUGAGCAUCA
B21: ENSG00000122008:stop:overlap|stop_codon|ENSG00000122008|stop_codon|NA|stop_codon (ssRNA)
RNA: GGGAGUUCUACAGUCCGACGAUCGAGCAUUAUUGGCUUUUUACAGGCUGGAAACCAAGCCCUGUCAGCCACUGAGUGUACAUUAGAGAAAACUGACAAAGAUAAGUUUGUAAAACCUCUAGAAAUGUCUCAUAAGAAGAGUUUCAACAGAGGAUUGAGCAUCA
B22: chr3:120396629:120396730:-|3pUTR|ENSG00000163430|msi1|FALSE|unique (ssRNA)
RNA: GGGAGUUCUACAGUCCGACGAUCGCCUUCAUUUCUAGGAGUGCUUUAAGAGAAACUGUAAAUGGUGCUCUGGGGCUGGAGGCUAGUAAGGAAACUGCAUCACGAUUGAAAGAGGAACAGACCCAAAUCUGAACCUCUUUUGAGCAACAGAGGAUUGAGCAUCA

For this assay, the target named is T1, UNK ZnF1-6 (called full-length). The assay is described as follows: nsRBNS (natural sequence RNA bind-n-seq); RBNS binding buffer (assumed for nsRBNS): 25 mM Tris pH 7.5, 150 mM KCl, 3 mM MgCl2, 0.01% Triton X-100, 500 ug/ml BSA, 20 U/ml SUPERase-In, 4 C; UNK is unkempt and MSI1 is Musashi-1; names of the RNAs are library labels; protein concentration not given here; high values mean tight binding.
B1: the binding signal came to 1.9 enrichment R. Regarding B2, the binding signal amounted to 0.7 enrichment R. B3 had a binding signal of 0.511 enrichment R.

The molecule B4 had a binding signal of 1.97 enrichment R. The result for B5 reads 0.486 enrichment R. The result for B6 reads 7.46 enrichment R; that for B7, 0.743 enrichment R. The result for B8 reads 0.41 enrichment R; that for B9, 0.42 enrichment R; that for B10, 2.44 enrichment R.

In turn, B11 returned a binding signal of 10 enrichment R. Molecule B12 yielded a binding signal of 0.323 enrichment R. B13: the binding signal worked out at 3.24 enrichment R. The result for B14 reads 101 enrichment R; that for B15, 0.843 enrichment R; that for B16, 5.14 enrichment R. The result for B17 reads 1.72 enrichment R. Turning to B18, the binding signal was found to be 0.782 enrichment R. In the case of B19 it was 0.955 enrichment R; in that of B20, 0.354 enrichment R. In the case of B21 it was 0.433 enrichment R; in that of B22, 0.489 enrichment R.
